# In PubChem BioAssay (NCATS):
# Values joined by “and” are separate entries in the source; they are usually repeats but may differ in a detail not shown here. Equal values may be shown once. The inconclusive results got no clear call from the source; some entries with a clear call stand among them for comparison. Where the call is inconclusive, the potency comes from a doubtful curve fit. Active and inactive are the calls of the source. Calls follow the shape of the dose curve; as a rule, active = well fitted curve in the direction sought with a large enough effect; inconclusive = small, poorly fitted or top-dose-only effect, or another doubt; inactive = no such curve, though single readings can be large; an effect the other way counts as inactive or inconclusive.
# Columns and labels:
# [1] = test system: NIH3T3; assay: Cytotoxic Profiling of Annotated Libraries Using Quantitative High-Throughput Screening (AID 1296008); settings: Five cell lines viability, CellTiter-Glo ATP luminescence, 48-72 h; max response: stronger effect = lower value; also: nearly all actives have a fitted effect of over 60% in size
# Procedure, shortened: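 Cytotoxicity was measured as CellTiter-Glo ATP luminescence, read after 10 min at room temperature. Compound treatment of the cells lasted 48 or 72 hr at 37 degrees Celsius in a qHTS format.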
# [2] = test system: WaGa; assay: qHTS assay to identify novel small-molecules to repurpose for Merkel cell carcinoma treatment (AID 1296009); settings: MCC and control cell lines, CellTiter-Glo viability, 72 h; series mostly up to 46 µM; also: nearly all actives have a fitted effect of over 60% in size
# Procedure, shortened: (§1)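 Cell viability, measured as CellTiter-Glo luminescence, was normalized between DMSO and no-cell wells. The cells had been exposed to 8- or 11-point compound dilutions for 72 hr at 37 degree celsius.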
# [3] = test system: UISO; assay: as above; settings: MCC and control cell lines, CellTiter-Glo viability, 72 h; series mostly up to 46 µM
# Procedure, shortened: as §1
# [4] = test system: MCC-13; assay: as above; settings: MCC and control cell lines, CellTiter-Glo viability, 72 h; series mostly up to 46 µM
# Procedure, shortened: as §1
# [5] = test system: MCC-26; assay: as above; settings: MCC and control cell lines, CellTiter-Glo viability, 72 h; series mostly up to 46 µM
# Procedure, shortened: as §1
# [6] = test system: CAOV3; assay: Primary qHTS to identify gynecologic anti-cancer compounds using libraries of approved drugs and bioactive compounds (AID 1345084); settings: Gynecologic cancer cell panel viability, ATPlite luminescence, 48 h; series mostly up to 57.5 µM; also: nearly all actives have a fitted effect of over 55% in size
# Procedure, shortened: (§2)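 In this quantitative HTS, cell killing is estimated from loss of ATP-dependent luciferase light. Cells see five compound concentrations over a 48 h exposure.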
# [7] = test system: MKL-2; assay: qHTS assay to identify novel small-molecules to repurpose for Merkel cell carcinoma treatment (AID 1296009); settings: MCC and control cell lines, CellTiter-Glo viability, 72 h; activity change, negative = cytotoxicity: at 46 µM (top of the series); also: nearly all actives have a fitted effect of over 60% in size
# Procedure, shortened: as §1
# [8] = test system: C33A; assay: Primary qHTS to identify gynecologic anti-cancer compounds using libraries of approved drugs and bioactive compounds (AID 1345084); settings: Gynecologic cancer cell panel viability, ATPlite luminescence, 48 h; series mostly up to 57.5 µM; also: nearly all actives have a fitted effect of over 55% in size
# Procedure, shortened: as §2
# % is scaled to controls: 0 for no effect and ±100 for the full control effect; potency is read from the fitted curve at half-maximal effect; tags tell the direction and shape of the fitted curve.
structure (smiles),measurement,setting,value
CC(C)(N)C(=O)N[C@H](COCc1ccccc1)C(=O)N1CCC2(CC1)CN(S(C)(=O)=O)c1ccccc12,Potency,[1],"inconclusive: 37.2 µM [inhibitor, partial curve, poor fit]"
same,Potency,[2],inactive
Cn1cc(-c2ccc3nnc(Sc4ccc5ncccc5c4)n3n2)cn1,Potency,[1],"inconclusive: 9.35 µM [inhibitor, full curve]"
same,Potency,[2],inactive
COc1cc(N2CCN(C)CC2)ccc1Nc1nc(N)c(C(=O)c2c(Cl)cccc2Cl)s1,Potency,[1],"inconclusive: 37.2 µM [inhibitor, partial curve, poor fit]"
same,Potency,[3],inactive
COc1cc(-c2nn(C3CCC(N4CCN(C(C)=O)CC4)CC3)c3ncnc(N)c23)ccc1NC(=O)c1cc2ccccc2n1C (stereo not given),Potency,[4],"inconclusive: 18.7 µM [inhibitor, partial curve]"
same,Potency,[5],"inconclusive: 8.33 µM [inhibitor, full curve]"
same,Potency,[2],"inconclusive: 0.418 µM [inhibitor, full curve, poor fit]"
same,Potency,[6],"inconclusive: 1.78 µM [cytotoxic, partial curve, poor fit]"
CN1CCN(c2ccc3nc(-c4c(N)c5c(F)cccc5[nH]c4=O)[nH]c3c2)CC1,Potency,[4],"inconclusive: 14.8 µM [inhibitor, partial curve]"
same,Potency,[5],"inconclusive: 1.48 µM [inhibitor, full curve]"
same,Potency,[7],"inconclusive: 23.5 µM [inhibitor, partial curve, poor fit]"
same,Potency,[3],"inconclusive: 0.935 µM [inhibitor, full curve]"
OC[C@H](Cc1ccccc1)Nc1nc(Oc2ccc3c(c2)CCC3)nc2c1ncn2Cc1ccc(-c2ccccc2)cc1,max response,[1],inactive: 1.2%
same,Potency,[3],"inconclusive: 20.9 µM [inhibitor, partial curve]"
same,Potency,[2],"inconclusive: 23.5 µM [inhibitor, single point]"
NCCCCNCCCN,Potency,[1],"inconclusive: 33.2 µM [inhibitor, single point]"
same,Potency,[2],"inconclusive: 18.7 µM [inhibitor, partial curve]"
C[C@@H](Cc1cc2c(c(C(N)=O)c1)N(CCCO)CC2)NCCOc1ccccc1OCC(F)(F)F,Potency,[1],"inconclusive: 25.9 µM [inhibitor, single point]"
same,Potency,[8],"inconclusive: 31.6 µM [cytotoxic, single point]"
same,Potency,[6],"inconclusive: 28.2 µM [cytotoxic, single point]"
O=C(O)CCc1ccc(NCc2cccc(Oc3ccccc3)c2)cc1,Potency,[1],"inconclusive: 29.1 µM [inhibitor, single point]"
same,Potency,[6],"inconclusive: 39.8 µM [cytotoxic, single point]"
CO[C@@H]1C(N(C)C(=O)c2ccccc2)C[C@H]2O[C@]1(C)n1c3ccccc3c3c4c(c5c6ccccc6n2c5c31)C(=O)NC4=O (stereo not given in full),Potency,[1],"inconclusive: 7.43 µM [inhibitor, full curve]"
same,Potency,[3],"inconclusive: 11.8 µM [inhibitor, partial curve]"
CCN(C)C(=O)Oc1cccc([C@H](C)N(C)C)c1,max response,[1],inactive: 1.74% and inactive: -5.17%
same,Potency,[3],inactive
CC1=C(C(=O)O)N2C(=O)[C@@H](NC(=O)C(N)c3ccccc3)[C@H]2SC1 (stereo not given in full),Potency,[4],inactive
C[C@H]1O[C@@H](n2cc(F)c(=O)[nH]c2=O)[C@H](O)[C@H]1O,Potency,[1],"inconclusive: 37.2 µM [inhibitor, single point]"
same,Potency,[3],"inconclusive: 26.4 µM [inhibitor, single point]"
same,Potency,[2],"inconclusive: 16.6 µM [inhibitor, partial curve]"
CCCS(=O)(=O)Nc1ccc(F)c(C(=O)c2c[nH]c3ncc(Cl)cc23)c1F,Potency,[1],"inconclusive: 33.2 µM [inhibitor, single point]"
same,Potency,[3],"inconclusive: 14.8 µM [inhibitor, partial curve]"
C=C1C(=CC=C2CCCC3(C)[C@@H]([C@H](C)C=CC=CC(O)(CC)CC)CC[C@@H]23)C[C@@H](O)C[C@@H]1O (stereo not given in full),Potency,[1],inconclusive: 0.001 µM [inhibitor]
same,Potency,[2],active: 11.8 µM
S=P(N1CC1)(N1CC1)N1CC1,Potency,[1],"inconclusive: 16.6 µM [inhibitor, partial curve]"
same,Potency,[7],"inconclusive: 22.8 µM [inhibitor, partial curve, poor fit]"
same,Potency,[6],inactive
O=C(C[C@@H]1CC=CCCC(=O)O[C@H](c2ccccc2)CNC1=O)NCc1ccc(Cl)cc1,Potency,[4],inactive
